Publication PMC12136788
The other results are listed elsewhere or left out.

T1: UNK ZnF1-3 (human, UniProt Q9C0B0 31-174)
T1 sequence: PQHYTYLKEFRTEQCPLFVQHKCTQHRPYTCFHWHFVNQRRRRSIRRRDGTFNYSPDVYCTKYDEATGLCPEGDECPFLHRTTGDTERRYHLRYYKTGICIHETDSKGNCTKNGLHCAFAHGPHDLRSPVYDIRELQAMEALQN

B1: 133292388_133292508_1102_3pUTR_ENSG00000113583_ENST00000231512|human|control|control (ssRNA)
RNA: GGGAGUUCUACAGUCCGACGAUCAAAUUAUAUACUCGUUUGUGACAUUUAAUUUCCAAAGCACCAAGGCAAAAGAGAGACUCACCUCUCAUUUAAGUACCAAUUGCCUAUGGCAAACAUUUGCACAAUAUCAUAUAAAAAGUCCAACAGAGGAUUGAGCAUCA
B2: chr10:33190432:33190433:-_ENSG00000150093_ENST00000302278|hu_mus|hu_hu_hu_mus_True|68_108 (ssRNA)
RNA: GGGAGUUCUACAGUCCGACGAUCUACAUUUUCAAAACCUGCAUGUGAAUAAAACCCUGGCCACAGAGCCCUAAAGCUACCCUACUGUGACUAAGAUGCUGCUGCUGUGAGCUUGGUGUUGCAAAAUCCGCCUGAGUAGGAUUCCAACAGAGGAUUGAGCAUCA
B3: chr4:120981101:120981102:-_ENSG00000164109_ENST00000333047|hu_mus|FALSE|FALSE (ssRNA)
RNA: GGGAGUUCUACAGUCCGACGAUCAAUCUGUUGAUUCCCCUUAACAAUGUGCAGCACUCUUGUCGACUCAGACAAGUCCAGGAAGAACCCAAGAAAUGGAACAAUAACACACAUUUAUCAAUGUCGGAUCUUAGCUUUCUUCACCAACAGAGGAUUGAGCAUCA
B4: chr14:59854306:59854307:+_ENSMUSG00000035469_ENSMUST00000043227|mus_mus|FALSE|FALSE (ssRNA)
RNA: GGGAGUUCUACAGUCCGACGAUCUAAGAAAUGGACUCACAAGAAGCAAAUAUCCUUCAUAUAUUCCUACAGAGCACUGUCUAUGGUGUGGGGCUUUACCUGCAGAUCACCGCACCCACAGUGCCCCAGAGCUCUCACACCUAGCAACAGAGGAUUGAGCAUCA
B5: chr17:65740002:65740003:+_ENSG00000130935_ENST00000581375|hu_hu|hu_hu_hu_mus_False|38_108 (ssRNA)
RNA: GGGAGUUCUACAGUCCGACGAUCAACCCGUUCUUGCUCCCUGGACGAACAGGAAGAUUCAUAUUAAAAAAAAUAUAUAUCCAUCAAGUUAGGUGUGUAAUAUCAGACUUUACUCCCAGCACUUUGGGAGGUGGAUCUCUGAGUCAACAGAGGAUUGAGCAUCA
B6: chr14:57741442:57741443:+_ENSG00000053770_ENST00000261558|hu_mus|motif|central (ssRNA)
RNA: GGGAGUUCUACAGUCCGACGAUCAACUUUCCAGGCUGGCUGUUUUUGCGGCUGAGUCACAGAUACGGAAUUAAUGCGGUUCAGUGAAUUCUGCAAGUUAGCAUCCAAUAAAGUACCCAAAGGACAAGCCUGUAGAAGCAAGUCCAACAGAGGAUUGAGCAUCA
B7: chr9:14812383:14812384:-_ENSMUSG00000031934_ENSMUST00000164273|mus_mus|mus_mus_mus_hu_True|48_108 (ssRNA)
RNA: GGGAGUUCUACAGUCCGACGAUCAUAGCUCAAGUAGAUACACGCUAACAGUAUAAUGAUGAGUGUCAGCAGGCGGCAGCUAAUGUAUUUCAUGAUUAAAUUAUUAGAAUUUUUCUUUGUCUUCAAGUACUGCUCCACAAUUGGCAACAGAGGAUUGAGCAUCA
B8: chr7:17500836:17500837:-_ENSMUSG00000019370_ENSMUST00000019514|mus_hu|FALSE|FALSE (ssRNA)
RNA: GGGAGUUCUACAGUCCGACGAUCAUAUAUUUUUCUUCACAGCUUGAACUGAACACAAUAUUGCCCGGUUUAAAAAAAACAAAACCAAAACAUUCCGAAAAUGUCCACAGCCUCACGCCUACCUGCCCUUACCCUCAGCUCUUGCAACAGAGGAUUGAGCAUCA
B9: chr1:225611761:225611762:-_ENSG00000143815_ENST00000272163|hu_mus|hu_hu_hu_mus_True|8_18 (ssRNA)
RNA: GGGAGUUCUACAGUCCGACGAUCCCAGGCCAUCGGCCUCUGACCACUUCACCCUCAACAAACUUCCUACUUGGCAUUUUCUAAAAUUAGUCUGGCCGCGCUCCGGCGGGAACUCCAGACGGCUCCCGGAGAAUAGUAGCAGCCCAACAGAGGAUUGAGCAUCA
B10: chr1:220276048:220276049:+_ENSG00000067704_ENST00000302637|hu_hu|hu_hu_hu_mus_True|88_88 (ssRNA)
RNA: GGGAGUUCUACAGUCCGACGAUCGCAAAUUGCCUGGUUGGCGGGAAUCGUCCAAGGCUGGGUGGUCCAAACUAAAACGCUAACAGGGGAUGAGGCAUCUGUAAGAGACUCCAACUUCGGAGGAGGUCUCAGGAGGGGGAAUCUCAACAGAGGAUUGAGCAUCA
B11: chr19:15271381:15271382:-_ENSG00000074181_ENST00000263388|hu_hu|FALSE|FALSE (ssRNA)
RNA: GGGAGUUCUACAGUCCGACGAUCACGCUGCAAGGCAAGGAUGCAGGAGGGUUGGUGGAAAGAGAAGAGGAUGAAAAAGACUAAAAGGAAGGAAGAGACAGAGAAAGAAAGGAGGCAGGACGGGGGUCUCUUUAGGCCCCCAAGCAACAGAGGAUUGAGCAUCA
B12: chr1:167345318:167345319:+_ENSG00000143190_ENST00000367866|hu_hu|FALSE|FALSE (ssRNA)
RNA: GGGAGUUCUACAGUCCGACGAUCCGUCUGUGAGAUGAUAAACUGCGCUGGCUGCAAAUUGGUGGUUGGAUGCACCAACACAAACUGUUGCAGGUUGAGAUUCUGCUGUUGAAGCUGUUGCAGUUGUUGAAGAUCCUGUGCGAUCAACAGAGGAUUGAGCAUCA
B13: 13149494_13149614_1529_3pUTR_ENSMUSG00000024423_ENSMUST00000025290|mouse|control|control (ssRNA)
RNA: GGGAGUUCUACAGUCCGACGAUCGAUGAAUACUCGGGUUUUCACGUAAACUAUCACUCCAUGAUGAAUACUAUGGAAGGAAGCGUGACUCACUUGUGAAAUCACAAGAGAAAGACUCCCCAAGACCUCCGUCUUCCAUGCGCCCAACAGAGGAUUGAGCAUCA
B14: chr2:172291668:172291669:+_ENSG00000115827_ENST00000375255|hu_hu|motif|central (ssRNA)
RNA: GGGAGUUCUACAGUCCGACGAUCAACACUGCUGACACAGCGCCGAUAAUUGUCAAAAUAUAUUCUUCCUCUCUCAUAGGCGGUAGGUGACCUGGAAUGAGUUGUCCAGACAUUCUUAAAUUUAGUACUUUCCUGGCACACCAGCAACAGAGGAUUGAGCAUCA
B15: chr4:99801976:99801977:-_ENSG00000151247_ENST00000280892|hu_mus|motif|central (ssRNA)
RNA: GGGAGUUCUACAGUCCGACGAUCCACAUCUGCGGGUUCUGGGGUGACGUAUACUGUAAUUCUUUGAUUGGGAUAGUGGACACACGGGCAAAAAUUGGGGGUGGGGGAGGAGAAUGAACACAGAAGUACAAGACAAAGGCGAAUCAACAGAGGAUUGAGCAUCA
B16: chr16:94664741:94664742:+_ENSMUSG00000040785_ENSMUST00000117648|mus_hu|mus_mus_mus_hu_False|38_98 (ssRNA)
RNA: GGGAGUUCUACAGUCCGACGAUCUGGUACUGAUCUUUGCAUUGGAUAUUCAGGAGAAAGGCUGGCCAAGGGUGUAUAUAUGCUGGUGUACUGGGGCAGGCUAGGUAACACGUUUAUGUAUGCUGGCGGUGUCUGGGUGAUAUCCAACAGAGGAUUGAGCAUCA
B17: chr10:121586235:121586236:+_ENSG00000198825_ENST00000369080|perfect_dup|FALSE|FALSE (ssRNA)
RNA: GGGAGUUCUACAGUCCGACGAUCGAGGUUGCCAAUAUUUACAUUGGAUUUGGUCUGCUUCACUUUUUGAUUUAGAGAUGAAAAUUUGCUCAUUAAAAAAUUCUUUCCCUGGGCCAAAGAACCUUGGUUUUGAGACCUGAUACCCAACAGAGGAUUGAGCAUCA
B18: chr14:76904430:76904431:+_ENSMUSG00000022010_ENSMUST00000022587|mus_mus|mus_mus_mus_hu_True|18_38 (ssRNA)
RNA: GGGAGUUCUACAGUCCGACGAUCUGCAGCCAAAAACACCCUCGUGGAAAAAAAGAGGGAACACCAGCAGCCUUGUAUAAGCUAGAUAAAAUCUUCUAGCUGUCUGCAGCCCAGGGAGUGAGAACGGACGGCAGCCCUAAUUUACAACAGAGGAUUGAGCAUCA
B19: 84185012_84186113_6023_CDS_ENSMUSG00000020532_ENSMUST00000020843|mouse|control|control (ssRNA)
RNA: GGGAGUUCUACAGUCCGACGAUCUGGGAACCAAACCUGGCCGGCCUGCUGGAUUAUCUUGGCUUCAGAAUCCAGGUUCGCAGGAUCAGCUGGGAUACUGAGUUCCACUGUUCGGGUUUCUACAGCAACUACUCCCACGGGUAUCAACAGAGGAUUGAGCAUCA
B20: chr11:63961690:63961691:+_ENSG00000168439_ENST00000305218|hu_mus|FALSE|FALSE (ssRNA)
RNA: GGGAGUUCUACAGUCCGACGAUCUUCAUGUUUUAAACCUUCUUCAUAGGUUCGUUUGGCUUCCUCAAACCGGUUUAGGAAUUCAAGGGCUGCUGCUUUUCUUGAAUAACCCUUGCCCCAGUCAGGCUUCAGGUCAACAGUCUUCAACAGAGGAUUGAGCAUCA
B21: chr11:134117265:134117266:+_ENSG00000151502_ENST00000281187|hu_hu|FALSE|FALSE (ssRNA)
RNA: GGGAGUUCUACAGUCCGACGAUCGUUGGAAAAUGAACGUGUGUUGUCAGUUGGGAGGCAAAGGAAUUGACAAAUGCUUCUAGUUAGAAUAUCAGCUAGGAAAAGGAGGGAUACAGAGCCUGACCUCAUGCUCUGAAAAGGCAACAACAGAGGAUUGAGCAUCA
B22: chr2:37230337:37230338:-_ENSMUSG00000075376_ENSMUST00000100143|mus_hu|motif|central (ssRNA)
RNA: GGGAGUUCUACAGUCCGACGAUCAGAAAUAAAUAAGUUAACUAAGUCUACUUUCACUAGAUGUAUCAUUGUAGGAUCCUGCGGGUUUAAUAACUGAGUUGUUAAUUUUCUAUAGAAGCCAUUUAAAAUAGGAAAUGGCUCAGUCAACAGAGGAUUGAGCAUCA

molecular target: T1, UNK ZnF1-3; assay: nsRBNS (natural sequence RNA bind-n-seq); RBNS binding buffer (assumed for nsRBNS): 25 mM Tris pH 7.5, 150 mM KCl, 3 mM MgCl2, 0.01% Triton X-100, 500 ug/ml BSA, 20 U/ml SUPERase-In, 4 C; UNK is unkempt and MSI1 is Musashi-1; names of the RNAs are library labels; protein concentration not given here; high values mean tight binding

Binder | binding signal [enrichment R]
B1 | 0.935
B2 | 1.07
B3 | 1.38
B4 | 0.698
B5 | 1.09
B6 | 1.05
B7 | 2.32
B8 | 1.55
B9 | 1.27
B10 | 1.25
B11 | 2.27
B12 | 0.75
B13 | 0.895
B14 | 1.4
B15 | 2.17
B16 | 1.23
B17 | 1.42
B18 | 2.49
B19 | 0.538
B20 | 0.607
B21 | 1.17
B22 | 1.25
